The record followed here is publication PMC3804274.

Chains of the proteins cited; added tags and fusions are not shown. Lines headed by an entry give the natural chain unless they say otherwise; changes in a name come on top. A line that says so, or that is headed by a name, gives the form on record, which may keep a tag or linker. Residues count along the entry.
UniProt P60520: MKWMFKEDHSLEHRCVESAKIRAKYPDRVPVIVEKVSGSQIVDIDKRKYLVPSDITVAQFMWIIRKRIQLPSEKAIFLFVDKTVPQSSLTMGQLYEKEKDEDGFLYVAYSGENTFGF
UniProt Q6P9H5: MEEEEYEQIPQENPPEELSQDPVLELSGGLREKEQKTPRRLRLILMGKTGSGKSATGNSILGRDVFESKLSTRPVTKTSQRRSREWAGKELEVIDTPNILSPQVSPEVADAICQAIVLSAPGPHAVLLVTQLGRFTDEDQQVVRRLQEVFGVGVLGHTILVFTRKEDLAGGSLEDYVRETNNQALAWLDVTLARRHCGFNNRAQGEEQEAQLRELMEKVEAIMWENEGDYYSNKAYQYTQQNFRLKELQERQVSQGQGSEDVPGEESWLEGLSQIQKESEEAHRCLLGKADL
biotGIMAP6 lacking the 10 terminal amino acid residues (amino acids 283-292): residues 1-282 of Q6P9H5
biotGIMAP6 lacking the C-terminal domain (amino acids 244-292): residues 1-243 of Q6P9H5
biotGIMAP6 lacking amino acids 1-36: residues 37-292 of Q6P9H5
biotGIMAP6 arginine-134 to alanine (Q6P9H5, form named): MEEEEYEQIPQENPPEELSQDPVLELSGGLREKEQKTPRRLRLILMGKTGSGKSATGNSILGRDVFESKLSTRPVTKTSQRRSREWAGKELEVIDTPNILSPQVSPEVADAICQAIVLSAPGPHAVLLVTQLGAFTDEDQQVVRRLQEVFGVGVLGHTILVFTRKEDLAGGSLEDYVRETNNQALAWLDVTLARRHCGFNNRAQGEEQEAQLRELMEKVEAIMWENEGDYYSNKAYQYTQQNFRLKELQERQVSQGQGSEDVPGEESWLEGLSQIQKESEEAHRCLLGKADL
UniProt Q8K349: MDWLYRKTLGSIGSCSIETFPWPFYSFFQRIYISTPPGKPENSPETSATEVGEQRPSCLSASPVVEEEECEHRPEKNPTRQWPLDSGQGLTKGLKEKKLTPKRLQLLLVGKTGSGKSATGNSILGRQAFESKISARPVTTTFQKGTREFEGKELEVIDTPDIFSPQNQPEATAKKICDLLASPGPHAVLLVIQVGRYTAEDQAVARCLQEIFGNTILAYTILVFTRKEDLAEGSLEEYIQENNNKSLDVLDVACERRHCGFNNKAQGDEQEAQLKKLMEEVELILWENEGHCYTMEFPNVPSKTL

In assay [1] the target is biotGABARAPL2 (human GABARAPL2 in pcDNA3Biot1His6iresBirA), wild type (human) (UniProt P60520). In words: pull-down; HEK293T co-transfected with a biotin-tagged bait (with BirA) and a myc- or HA-tagged prey; TX100 lysate; streptavidin-agarose, 4°C, 4 h; blot for the tag.
In assay [2] the target is biotinylated GABARAPL2 G116A (human) (UniProt P60520). The description is as above.
Assay [3] addresses biotinylated GABARAPL2 lacking the N-terminal 10 amino acids (human) (UniProt P60520). The description is as above.
Assay [4] addresses biotGIMAP6 arginine-134 to alanine (human) (UniProt Q6P9H5). Nature of the assay: pull-down; HEK293T transfected with biotin-tagged GIMAP6 or its mutants only; streptavidin-agarose 48 h after transfection; blot with MAC446 to GABARAPL2.
Assay [5] has as its target biotGIMAP6 lacking the C-terminal domain (amino acids 244-292) (human) (UniProt Q6P9H5). The description is as above.
The next assay deals with biotGIMAP6 Y6A (human) (UniProt Q6P9H5). Described as above.
The target of another assay is biotGIMAP6 D167A (human) (UniProt Q6P9H5). The assay is described as above.
Assay [6] deals with biotGIMAP6 lacking amino acids 1-36 (human) (UniProt Q6P9H5). The description is as above.
Another assay deals with biotGIMAP6 T76A (human) (UniProt Q6P9H5). The description is as above.
A further assay addresses biotGIMAP6 I9A (human) (UniProt Q6P9H5). The description is as above.
Assay [7] deals with biotGIMAP6 lacking the 10 terminal amino acid residues (amino acids 283-292) (human) (UniProt Q6P9H5). The description is as above.

Results are given in words; binding and its absence hold for the method and conditions named. In cells and extracts the contact can be indirect. Some entries that bind do so weakly or less than the wild type.

On to “myc-tagged mouse GIMAP6 (from UniProt Q8K349 1-305)”, for which, in [1], the binding result is “binds weakly”.
Regarding “myc-tagged human GIMAP6 (from UniProt Q6P9H5 1-292)”, the binding entry is listed as “binds” in assay [2] and “no binding” in [3].
Regarding “GABARAPL2 of HEK293T cells detected with MAC446 (from UniProt P60520 1-117)”, the binding entry was “binds” in assay [4]; “no binding” in [5]; “binds” with biotGIMAP6 Y6A (human); “binds” in the assay with biotGIMAP6 D167A (human); “binds” in assay [6]; “no binding” in the assay with biotGIMAP6 T76A (human). Moreover, the binding result with biotGIMAP6 I9A (human) was “binds”; in assay [7], “no binding”.
